Assay results as given in the supplement of paper PMC11417369.
± gives the standard deviation of the averaged measurements. Some of the results follow.

Test system: PfAP2-EXP AP2 domain (GST-tagged)
Experiment: gcPBM binding intensity (ln(normalized median fluorescence intensity)); higher = stronger DNA binding
Method in brief: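 Binding intensity is the highest Masliner-normalised natural-log median intensity over replicate spots in either probe orientation. To obtain it, GST-tagged P. falciparum DNA-binding domains made in E. coli were incubated for 1 h on an Agilent 4 × 180k array of primer-extended double-stranded 36-bp intergenic genomic probes plus negative controls. Detection used Alexa488 anti-GST antibody with scanning at 488 nm.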

Sequence | gcPBM binding intensity (ln)
CAGAAATATTCTTATACACACTGTTCTTATATTCCT [CACACA_site4318] | 8.71 ± 0.48
AATATATATATAAATAGTACATATAAAGAGAATTTT [XGTACX_site3168] | 8.64 ± 0.47
TTTATCTTTTTTTGTTGTACAGATGTTTATATTTTA [XGTACX_site4065] | 8.82 ± 0.42
ATTAAAACAAAATGTACACACATATAATTTAATGAC [CACACA_site878] | 8.62 ± 0.29
AATAACATTATTTTATGTACACATGAAAAATAAAAT [XGTACX_site4657] | 8.65 ± 0.28
AATATCAAAATAACATGTACATGTTATATTTTATTT [XGTACX_site5891] | 8.48 ± 0.38
TGTAATAAACTACTTTTTTTTTTTTTTTTTTTTTTT [CACACA_negctrl_site1021] | 8.99 ± 0.35
TGATATTTCATCATAGTGCAATATGGCATATAAATA [GTGCAC_site9433] | 8.64 ± 0.099
CATATATACAGTAACACACACAAAAAAATATGAATA [CACACA_site3996] | 8.82 ± 0.52
TTATTTATTTATTATAGTTCACTTGAAAATACAAGA [CACACA_negctrl_site1480] | 8.26 ± 0.38
TAATTTATAACACGCGCACACATATATATATAGTAA [CACACA_site121] | 9.16 ± 0.4
AATAGTGTCATAAAAACTATTATCATATAATGTGAA [CACACA_negctrl_site1578] | 8.42 ± 0.51
TTGTTGTGTATTATCGTGCACATAATATAAAAGATT | 9.31 ± 0.45
TTTCTTTTTAACTCTTACATAATAGGTGGTAGAAGG [TGCATGCA_negctrl_site176] | 8.59 ± 0.31
TTCTTAAAAAATCAAACACACATATATAAATACATA [CACACA_site5301] | 8.6 ± 0.3
AAAAAATATAAAAAAACACACAAAAAAAAAAAAAAA [CACACA_site1382] | 8.1 ± 0.37
CCCCATTTATCTTAAGCATGCCATGGTTTTAGATAT [TGCATGCA_site24] | 9.45 ± 0.45
AAAGACGTTTATAAATGTACATACACTTTAAAAGTT [XGTACX_site8753] | 8.66 ± 0.3
ATAAAAAAAAAAAATACACACATATATATATATATA [CACACA_site1709] | 10.1 ± 0.26
TATATTTTTTAAAAAAGTACAAAGTAATTATTGATT [XGTACX_site2420] | 8.56 ± 0.37
TGAAATGAAAGAACAGCACACATATATATTATATAT [CACACA_site8613] | 8.64 ± 0.42
GTAGTACATTCTAGAATACACACCTATATATATATA [CACACA_site522] | 10 ± 0.24

Sequence | gcPBM binding intensity (ln)
ATATGAAAAACTTCATGTACTTATTATAAAATATAA [XGTACX_site2725] | 8.14 ± 0.19
CTTTTTTTTTTGTATTGTACTTTATTTTTACATCGT [XGTACX_site2918] | 8.8 ± 0.47
ATTTTTAATTTTTTCACACATATATTTAAAATAAAA [CACACA_site4799] | 8.41 ± 0.46
ATTCTAATTTTATGAAACGATTATTTTGAATTCATT [XGTACX_negctrl_site578] | 8.45 ± 0.38
ATAAAAAAAAATATATGTACATATATAAATTGATAT [XGTACX_site7409] | 8.73 ± 0.42
GATTACCTTTTTTTTTTTTTTTTTTTTTTTTTTTTC [CACACA_negctrl_site147] | 8.14 ± 0.52
TTATAGACATATATAGGTACACATATTTTCAATCCC [XGTACX_site8230] | 8.72 ± 0.65
ATTTATTAATCATATACACACATATATTTGTATTTA [CACACA_site1336] | 8.55 ± 0.4
TATTTTTTTAAAATAGGTACACAATCAAACATTTAT [XGTACX_site8785] | 8.63 ± 0.42
ACCTCATAATATTTAACACACAAAATTATCTGTATG [CACACA_site5015] | 8.94 ± 0.43
CGTCCAAAATATCCTTCACACACGAACAGTTTCATT [CACACA_site2729] | 8.76 ± 0.41
TTTAAATAAAAATGGAGTACTCTAAAAAAAAAAAAA [XGTACX_site1233] | 8.53 ± 0.63
CTATAATATTATAACAGTACATAATATTATATATAT [XGTACX_site1414] | 8.58 ± 0.24
GCATTGATCAAACATACACACATGGTTAATAAAAAT [CACACA_site2085] | 8.72 ± 0.55
ATATATATATATAATACACACATAAATGAATATATA [CACACA_site316] | 9.85 ± 0.18
TTTATATAATATTCTACACACCAACAACAAACATAT [CACACA_site4478] | 8.92 ± 0.47
GTGATTTCTATGAATTGTACTTAAATATAGTTATAT [XGTACX_site231] | 8.51 ± 0.28
AAAAAACGCACTCGTACACACATATTTTCTTTCTAA [CACACA_site3089] | 8.61 ± 0.16
AATATTTACCAGAAAATAAAAATATGTATATATATA [CACACA_negctrl_site351] | 9.19 ± 0.071
ATATAATCAACTGCAAAGGTTTAAAAGGAAAAAATA [CACACA_negctrl_site989] | 8.7 ± 0.44
TTAATTACACAAAAAAGTACTTGATATTGTTTATTA [XGTACX_site3449] | 8.17 ± 0.34
AATATTTATATTTACACACACATAATACATATATGT [CACACA_site33] | 8.49 ± 0.27
